# Data taken from paper PMC4336329 (PLoS ONE, 2015).
# Screen size: about 310,000 compounds; about 2,200 (0.71%) showed an effect of 50% or more. The effect is printed as a negative number. The list shows a part of the results.
# Target: human ether-à-go-go-related gene (hERG) potassium channel (human, UniProt Q12809)
# Experiment: primary screen, population patch clamp on CHO cells stably expressing hERG
# Chain of human ether-à-go-go-related gene (hERG) potassium channel (Q12809 whole entry, looked up): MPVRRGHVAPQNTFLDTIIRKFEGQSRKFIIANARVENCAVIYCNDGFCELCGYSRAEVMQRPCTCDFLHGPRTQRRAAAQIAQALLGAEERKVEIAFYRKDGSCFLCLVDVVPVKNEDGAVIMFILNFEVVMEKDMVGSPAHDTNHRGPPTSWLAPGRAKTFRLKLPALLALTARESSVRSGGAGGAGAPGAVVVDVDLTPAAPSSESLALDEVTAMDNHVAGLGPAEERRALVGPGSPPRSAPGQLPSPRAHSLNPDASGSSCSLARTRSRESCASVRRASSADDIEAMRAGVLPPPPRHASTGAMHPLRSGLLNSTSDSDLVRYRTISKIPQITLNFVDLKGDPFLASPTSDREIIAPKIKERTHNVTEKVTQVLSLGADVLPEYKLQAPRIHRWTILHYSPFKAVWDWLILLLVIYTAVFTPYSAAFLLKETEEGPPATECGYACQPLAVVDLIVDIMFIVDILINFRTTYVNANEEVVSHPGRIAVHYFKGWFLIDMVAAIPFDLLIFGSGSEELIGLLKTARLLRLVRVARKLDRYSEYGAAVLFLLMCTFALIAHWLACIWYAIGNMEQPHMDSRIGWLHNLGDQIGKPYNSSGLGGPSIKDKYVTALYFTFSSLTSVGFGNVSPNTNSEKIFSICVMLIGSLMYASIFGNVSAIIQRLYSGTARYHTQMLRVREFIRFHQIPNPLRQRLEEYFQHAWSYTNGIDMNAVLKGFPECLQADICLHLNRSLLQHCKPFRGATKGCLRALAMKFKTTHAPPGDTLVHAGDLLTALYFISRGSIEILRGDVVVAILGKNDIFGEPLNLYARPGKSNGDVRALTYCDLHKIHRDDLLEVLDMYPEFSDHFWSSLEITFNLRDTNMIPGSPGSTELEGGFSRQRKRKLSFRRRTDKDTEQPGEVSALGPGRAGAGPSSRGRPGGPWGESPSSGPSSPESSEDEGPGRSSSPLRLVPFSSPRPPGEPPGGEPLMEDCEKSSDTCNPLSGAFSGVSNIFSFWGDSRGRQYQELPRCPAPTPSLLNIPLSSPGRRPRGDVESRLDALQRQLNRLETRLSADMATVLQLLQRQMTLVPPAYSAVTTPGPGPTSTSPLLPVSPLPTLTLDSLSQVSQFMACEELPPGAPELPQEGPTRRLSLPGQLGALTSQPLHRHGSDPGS
row,Structure (SMILES),"hERG current change (%, negative = inhibition) at 1uM [%]"
1,CC(C)(C)c1ccc(C(=O)NNC(=O)c2ccccc2Br)cc1,6.86
2,Br.CCC(C)N1Cc2ccccc2C1=N (stereo not drawn),6.83
3,Cc1cccc(NC(=O)c2cc3n(n2)C(C(F)(F)F)CC(c2ccc4c(c2)OCO4)N3)c1 (stereo not drawn),6.41
4,COc1cc(OC)cc(C(=O)Nc2cccc(NC(C)=O)c2)c1,4.71
5,CCOC(=O)c1cnc2c(C#N)c(C)nn2c1-c1ccccc1,7.49
6,CCCc1ccc(-c2cc(C(=O)NCCc3ccc(S(N)(=O)=O)cc3)c3ccccc3n2)cc1,16.3
7,COc1ccc(CCNC(=O)c2cc(S(=O)(=O)N(C)C)ccc2N2CCCC2)cc1OC,12.4
8,COc1ccccc1N1CCN(CC(O)COc2cccc3ccccc23)CC1.Cl.O (stereo not drawn),-19.3
9,Cc1ccc(-c2nn(-c3ccccc3)cc2C(=O)N2CCOCC2)cc1C,5.14
10,CCC(=O)N(CCc1ccc(OC)c(OC)c1)Cc1cc2ccc(C)cc2n2nnnc12,-19.5
11,O=C(CSc1ncnc2ccccc12)Nc1ccc2c(c1)OCO2,3.76
12,CCOC(=O)c1c(C)[nH]c(C2=NNC(=NC3CC3)SC2)c1C,-2.95
13,COc1ccccc1Oc1ncnc2sccc12,-1.96
14,COCCNC(=O)C(c1ccc(C)o1)N(C(=O)C(=O)NC1CCCCC1)c1ccc(F)cc1 (stereo not drawn),8.36
15,Cc1nc2ccc(Br)cn2c1C(=O)N/N=C\c1ccccc1Cl,9.4
16,CCS(=O)c1ccccc1C(=O)OC(C)C(=O)Nc1ccc(S(=O)(=O)N2CCCC2)cc1 (stereo not drawn),16.7
17,Cc1ccc(-n2c(C)c([N+](=O)[O-])c3ccc(O)c(CN(C)C)c32)cc1,-2.89
18,CCOC(=O)c1cc(-c2ccccc2)sc1NC(=O)c1ccc(OC)cc1,16.6
19,NS(=O)(=O)c1ccc2nc(NC(=O)Nc3ccccc3F)sc2c1,10.7
20,COC(=O)C(C)n1cnc2c(nnn2-c2ccccc2)c1=O (stereo not drawn),0.753
21,Cc1nc(N)sc1N=Nc1c(C)n(C)n(-c2ccccc2)c1=O,-6.04
22,COc1ccc(Cc2nc3ccc(C(=O)N4CCCN(C=O)CC4)cc3o2)cc1,13.4
23,CCOC(=O)c1cc(NC(=O)c2cnccn2)cc(C(=O)OCC)c1,-7.09
24,CCCc1nc(SCC(=O)NC2CCCC2)c2ccccc2n1,8.44
